# The campaign covered roughly 5,400 compounds. About 190 (3.5%) showed an effect of 50% or more. This is one part of the list.
# Tested on: Vero-E6
# Assay: primary screen, phospholipidosis by LipidTOX staining; higher = more effect of the substance
# Details: 10 µM
# In short: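 Single-concentration screen at 10 μM, with DMSO 0.1 v/v % and amiodarone 10 μM as controls. Read-out is LipidTOX Red phospholipid staining, which tolerates aldehyde fixation, in Vero-E6 cells.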
row,Compound,result_ITMP
1,CCOC(=O)c1ccc(N(C)c2csc(-c3ccccc3)n2)cc1,-1.56%
2,COC(=O)[C@H](CC(C)C)NC(=O)c1ccc(NC[C@@H](N)CS)cc1-c1cccc2ccccc12,2.98%
3,C=C1/C(=C\C=C2/CCC[C@]3(C)[C@@H]([C@H](C)CCCC(O)(C(F)(F)F)C(F)(F)F)CC[C@@H]23)C[C@@H](O)C[C@@H]1O,0.82%
4,C=C[C@@H]1C2=CCOC(=O)C2=CO[C@H]1O[C@@H]1O[C@H](CO)[C@@H](O)[C@H](O)[C@H]1O,-5.79%
5,CCN(CC)CCOCCOC(=O)C1(c2ccccc2)CCCC1,6.63%
6,COc1ccc(Oc2c(Cl)cnn(C3c4ccccc4-c4ccccc43)c2=O)cc1,8.58%
7,CC(C)C[C@@H](NC(=O)OCC1c2ccccc2-c2ccccc21)C(=O)O,-9.45%
8,C=CCOc1ccccc1OCC(O)CNC(C)C (stereo not drawn),7.84%
9,O=C(/C=C/c1cccc(S(=O)(=O)Nc2ccccc2)c1)NO,-7.37%
10,Cc1nc(=O)c2c([nH]1)CCSC2,-2.05%
11,Cc1c(N)c(=O)n(-c2ccccc2)n1C,-5.95%
12,O=C(O)c1ccc[n+]([O-])c1,-11.7%
13,Nc1nc2c(cnn2CCc2ccccc2)c2nc(-c3ccco3)nn12,-1.94%
14,CC(=O)SCCC(=O)N1C(C)CCCC1C(=O)O (stereo not drawn),-5.88%
15,CCC(C)CC(C)CCCCCCCCC(=O)N[C@H]1C[C@@H](O)[C@@H](NCCN)NC(=O)[C@@H]2[C@@H](O)CCN2C(=O)[C@H]([C@H](O)CCN)NC(=O)[C@H]([C@@H](O)[C@H](O)c2ccc(O)cc2)NC(=O)[C@@H]2C[C@@H](O)CN2C(=O)[C@H]([C@@H](C)O)NC1=O (stereo partly drawn),6.26%
16,CCCCOc1c(C(=O)c2c(F)cc(C)cc2F)cnc2[nH]ncc12,7.58%
17,CC1=C(/C=C/C(C)=C/C=C/C(C)=C\C(=O)O)C(C)(C)CCC1 [R4A_0003961_001 / SPE_K76723084],-4.14%
18,CCC1(c2ccccc2)C(=O)N(COC)C(=O)N(COC)C1=O,-0.57%
19,CNC(=O)c1ccc2c(c1)S(=O)(=O)c1ccccc1C2=O,-1.39%

row,Compound,result_ITMP
1,O=C(CCc1ccncc1)NNC(=O)N1Cc2ccccc2Oc2ccc(Cl)cc21,-1.3%
2,CCOC(=O)Nc1nc2ccccc2[nH]1,2.26%
3,NC(C(=O)O)c1nnn[nH]1 (racemic),-4.82%
4,CN1CCN(c2ccc(/C=C(\C#N)c3ccccc3Br)cc2)CC1,39.7%
5,CCOC(=O)/C=C(C)/C=C/C=C(C)/C=C/c1c(C)cc(OC)c(C)c1C,-0.31%
6,CC1(C)Cc2c(-c3ccccc3)c(-c3ccc(Cl)cc3)c(CC(=O)O)n2C1,1.05%
7,CN1CCN(c2ccc(-c3cccc(CN4CCOCC4)c3)cc2NC(=O)c2c[nH]c(=O)cc2C(F)(F)F)CC1,-0.45%
8,CC(C)(C)c1cc(NC(=O)Nc2ccc(-c3cn4c(n3)sc3cc(OCCN5CCOCC5)ccc34)cc2)no1,0.02%
9,NCCC(O)(P(=O)([O-])O)P(=O)([O-])O,-8.19%
10,CC(CNC1CCCCC1)OC(=O)c1ccccc1 (stereo not drawn),-7.2%
11,O=C(O)c1cccc(-c2noc(-c3ccccc3F)n2)c1,-2.4%
12,Nc1ccc(S(=O)(=O)Nc2nccs2)cc1,-3.89%
13,CC(C)(C)c1ccc(-c2nc3cccc(N4CCN(Cc5ccc6nccnc6c5)CC4)c3[nH]2)cc1,5.05%
14,O=C1C(Cl)=C(N2CCOCC2)C(=O)N1c1ccc(Cl)c(Cl)c1,-4.29%
15,COc1ccc(C(=O)Nc2c(Cl)cncc2Cl)cc1OC1CCCC1,-2.57%
16,Cc1ccc(NC(=O)CCCCCC(=O)Nc2ccccc2N)cc1,-1.6%
17,Cc1ccc(-c2cc(C(F)(F)F)nn2-c2ccc(S(N)(=O)=O)cc2)cc1,-4.02%
18,CCCOC(=O)c1ccc(O)cc1,-6.59%
19,Nc1nc(NC[C@H]2CC[C@H](CNS(=O)(=O)c3cccc4ccccc34)CC2)nc2ccccc12,41.1%

row,Compound,result_ITMP
1,NCC(CC(=O)O)c1ccc(Cl)cc1 (racemic),2.22%
2,CCOC(=O)C1=C(C)NC(=S)NC1c1cccc(O)c1 (stereo not drawn),-1.92%
3,COC1[C@@H](O)[C@@H](O)C(O)[C@H](O)[C@H]1O (stereo partly drawn),1.78%
4,CC[C@H]1OC(=O)[C@H](C)[C@@H](O[C@H]2C[C@@](C)(OC)[C@@H](O)[C@H](C)O2)[C@H](C)[C@@H](O[C@@H]2O[C@H](C)C[C@H](N(C)C)[C@H]2O)[C@](C)(O)C[C@@H](C)CN(C)[C@H](C)[C@@H](O)[C@]1(C)O,21.4%
5,Nc1nc(OCC2CCCCC2)c2nc[nH]c2n1,-3.64%
6,CC(C)NCC(O)c1ccc([N+](=O)[O-])cc1 (stereo not drawn),6.25%
7,CN1CCc2nc(C(=O)N[C@@H]3C[C@@H](C(=O)N(C)C)CC[C@@H]3NC(=O)C(=O)Nc3ccc(Cl)cn3)sc2C1,-7.24%
8,OCCn1cc(-c2ccc3c(c2)CC/C3=N\O)c(-c2ccncc2)n1,-1.63%
9,CN[C@H]1CC[C@@H](c2ccc(Cl)c(Cl)c2)c2ccccc21,56.1%
10,COCCNC(=O)COc1ccc(OCCNC[C@H](O)COc2ccccc2)cc1,-1.98%
11,Cn1cc(-c2cnc3ccc4ccc(CS(=O)(=O)NCc5ccccn5)cc4c(=O)c3c2)cn1,-1.67%
12,NC[C@H](O)c1ccc(O)c(O)c1,-1.45%
13,Cc1sc2c(c1C)C(c1ccc(Cl)cc1)=N[C@@H](CC(N)=O)c1nnc(C)n1-2,1.35%
14,CCc1cnc(N2CCC(c3nc(COc4ccc(-n5cnnn5)cc4)cs3)CC2)nc1,-7.99%
15,CC(C)(C)C(=O)OCOC(=O)C1N2C(=O)CC2S(=O)(=O)C1(C)C (stereo not drawn),3.85%
16,CC[C@H](CO)Nc1nc(Nc2cccc(-c3ccccn3)c2)c2ncn(C(C)C)c2n1,0.3%
17,CCCCCCOc1ccccc1C(N)=O,-5.88%
18,O=C(O)C1=CC(O)C(O)[C@H](O)C1 (stereo partly drawn),1.4%
19,O=C([O-])CN1CCN(CC(=O)[O-])CCN(C(CO)C(O)CO)CCN(CC(=O)[O-])CC1.[Gd+3] (stereo not drawn),-1.16%

# From paper PMC13083723 (Patterns, 2026)
